{"source": "the supplement of paper PMC11417369", "note": "Some of the results follow."}
{"system": "PfSIP2 AP2 domain 1 (GST-tagged)", "experiment": "gcPBM binding intensity (ln(normalized median fluorescence intensity)); higher = stronger DNA binding", "outline": "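Binding intensity is the highest Masliner-normalised natural-log median intensity over replicate spots in either probe orientation. To obtain it, GST-tagged P. falciparum DNA-binding domains made in E. coli were incubated for 1 h on an Agilent 4 × 180k array of primer-extended double-stranded 36-bp intergenic genomic probes plus negative controls. Detection used Alexa488 anti-GST antibody with scanning at 488 nm.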"}
{"sequence": "TTTTACAAAGTATGATGTACAAGTATATATAAATAT [XGTACX_site2072]", "gcPBM binding intensity (ln)": 7.21}
{"sequence": "TACATGAATAAACTTACACACACCCATGCATACATA [CACACA_site97]", "gcPBM binding intensity (ln)": 7.02}
{"sequence": "TGAAAAGGAAAATTTTGTACATATACATCAAGGATA [XGTACX_site656]", "gcPBM binding intensity (ln)": 6.73}
{"sequence": "ACTTTTTATTTTTTACTATATATATATATATATATG [TGCATGCA_negctrl_site463]", "gcPBM binding intensity (ln)": 7.8}
{"sequence": "AAAAAAAAGAATTTACGTACTTATTATTTATATTTT [XGTACX_site5701]", "gcPBM binding intensity (ln)": 6.88}
{"sequence": "TAATTAAAAAATAAAAAAAAAAAAAATTAAAACAAA [CACACA_negctrl_site500]", "gcPBM binding intensity (ln)": 6.65}
{"sequence": "TGCTAATAATTATTTGTTTAGCAACAAAAAAAAAAA [CACACA_negctrl_site1541]", "gcPBM binding intensity (ln)": 6.9}
{"sequence": "TTCTTTTTAATTTATTTTTTCTTATAACAAGAAAAC [CACACA_negctrl_site201]", "gcPBM binding intensity (ln)": 7.17}
{"sequence": "GTACATACATAAAACACACACATATATATATATATA [CACACA_site1826]", "gcPBM binding intensity (ln)": 9.26}
{"sequence": "TTCTTTTCTTTTTTCTTTTTTTTTTTCTTTTCTTTT [GTGCAC_negctrl_site630]", "gcPBM binding intensity (ln)": 6.55}
{"sequence": "AAAAAAAAAAAAAAAACATGCAAAATAATATATATA [TGCATGCA_site68]", "gcPBM binding intensity (ln)": 7.44}
{"sequence": "AGAAAAGGACATATATGTACTTATCAATATAGAAAC [XGTACX_site1042]", "gcPBM binding intensity (ln)": 7.29}
{"sequence": "TCACATATGTTCCATTGTACTTGTAGTAATTTTTTC [XGTACX_site6473]", "gcPBM binding intensity (ln)": 6.95}
{"sequence": "GTAATATGTATCCATACACACATACATTTTATTTGC [CACACA_site4640]", "gcPBM binding intensity (ln)": 7.11}
{"sequence": "ATAAAATGAAATATATGTACGCATCACTTGTTGAAC [XGTACX_site4530]", "gcPBM binding intensity (ln)": 7.14}
{"sequence": "TATATTTTACTCTTCACACATATACTCAATTTATAT [CACACA_site5357]", "gcPBM binding intensity (ln)": 7.08}
{"sequence": "AAAAGAAAAAGAAAAACACACATAAATATAAATATA [CACACA_site1879]", "gcPBM binding intensity (ln)": 6.57}
{"sequence": "CATATTTGGAAACACACACACATATTTATATATATA [CACACA_site3569]", "gcPBM binding intensity (ln)": 7.95}
{"sequence": "AAAATTTTCTTTTTATGTACACATAATTTTACCGGA [XGTACX_site5276]", "gcPBM binding intensity (ln)": 6.92}
{"sequence": "AAAACAATAATATACTGTACATATATATAATAACAT [XGTACX_site6188]", "gcPBM binding intensity (ln)": 7.13}
{"sequence": "AAATTCAGGTTATATTTTAATTTTTTTTTGTTTTTT [CACACA_negctrl_site924]", "gcPBM binding intensity (ln)": 6.5}
{"sequence": "CATACACATACACATACACACGCATAGAAACATACG [CACACA_site8666]", "gcPBM binding intensity (ln)": 7.47}
{"sequence": "AATTTTTCATCAAGTTGTACAATTATTTGTTTGTTT [XGTACX_site3113]", "gcPBM binding intensity (ln)": 6.85}
{"sequence": "CAATATTTTTTATAGGGTACAAAAGATAAAAAAAAA [XGTACX_site6298]", "gcPBM binding intensity (ln)": 7.05}
{"sequence": "ACAATTTATATTATATGTACTTAAAAAGTTCGTAAA [XGTACX_site6421]", "gcPBM binding intensity (ln)": 7.02}
{"sequence": "TTTTATACATAAATATGTACGTATATATAATGAATT [XGTACX_site1337]", "gcPBM binding intensity (ln)": 7.01}
{"sequence": "GCCTCATCGTAGCAGTGTACGTTTTTTTTTTTTTTT [XGTACX_site8648]", "gcPBM binding intensity (ln)": 7.74}
{"sequence": "ATAACAACCCAATGTTGTACATTTAAATATAACGTA [XGTACX_site7114]", "gcPBM binding intensity (ln)": 6.93}
{"sequence": "TTCTAAAATTATATAGTGCAATTATATTAATTTTTC", "gcPBM binding intensity (ln)": 8.03}
{"sequence": "TATAACATATGACACACACACATACATACACAAAAA [CACACA_site6935]", "gcPBM binding intensity (ln)": 7.39}
{"sequence": "TATATATATTTATGTACACACACACCGATAAATAAA [CACACA_site4404]", "gcPBM binding intensity (ln)": 7.6}
{"sequence": "TTACGCGCTTATTACACACACATACAAATAAGGATT [CACACA_site3486]", "gcPBM binding intensity (ln)": 7.04}
{"sequence": "AAAAATAAAAAAAATACATGCAATGAAACATTTATT [TGCATGCA_site263]", "gcPBM binding intensity (ln)": 6.58}
{"sequence": "ATTTGTATTGTATATGCACACATAGAACACTTTTTT [CACACA_site9373]", "gcPBM binding intensity (ln)": 7.18}
{"sequence": "AACAAAATAAAAAAAACATGCAAGAATTCTTATATG [TGCATGCA_site714]", "gcPBM binding intensity (ln)": 6.63}
{"sequence": "TTGTGTTTGAAAAAATGTACATGTGTCTTACAACAA [XGTACX_site8371]", "gcPBM binding intensity (ln)": 6.95}
{"sequence": "TTATACAGATATTTAACACACATTTTATAAAGTGCC [CACACA_site4851]", "gcPBM binding intensity (ln)": 6.87}
{"sequence": "ATAAATGACAGACACACACACAAAAAAAAAAAACAA [CACACA_site2626]", "gcPBM binding intensity (ln)": 7.12}
{"sequence": "ACCCTATCTGTAACTACACACCGCATATTGTTTACT [CACACA_site5661]", "gcPBM binding intensity (ln)": 7.32}
{"sequence": "AAATATTTATATGTTACACACTGTTTATAACTTTCT [CACACA_site6752]", "gcPBM binding intensity (ln)": 6.65}
{"sequence": "TTTTTATCTTTGCTGTGTACATAAATAAAAATAACT [XGTACX_site7625]", "gcPBM binding intensity (ln)": 7.64}
{"sequence": "CTTCTGTAATTATCACGTACATATAATAATTAAAAT [XGTACX_site8973]", "gcPBM binding intensity (ln)": 7.34}
{"sequence": "TTTTTTTTGATAAGTTGTACAATGATATATATCCCT [XGTACX_site3560]", "gcPBM binding intensity (ln)": 7.12}
{"sequence": "ATAGTTTAATTTATATGTACATATAATATTGATTTG [XGTACX_site7520]", "gcPBM binding intensity (ln)": 7.29}
{"sequence": "TATATTTTATATTGGTGTACAATTTTTTTTTTTTTT [XGTACX_site4291]", "gcPBM binding intensity (ln)": 7.12}
